From PubChem BioAssay AID686979 (National Center for Advancing Translational Sciences (NCATS), 2013)
Hit rate of the full screen: of about 420,000 compounds, about 50,000 (12%) were called active. Inconclusive results, whose numbers are uncertain, are shown with a selection of clear calls. Calls come from the whole dose curve; as a rule, active = well fitted inhibition curve with a large enough effect; inconclusive = small, poorly fitted or top-dose-only effect; inactive = flat fitted curve, though single readings scatter. No potency is given beside an inconclusive call; the fits are too rough.

Experiment: qHTS for Inhibitors of human tyrosyl-DNA phosphodiesterase 1 (TDP1): qHTS in cells in presence of CPT; note: nearly all actives have a fitted effect of over 55% in size
Conditions: chicken DT40 Tdp1-/-;hTDP1 cells + 20 nM CPT, ATP luminescence, 48 h; activity change, negative = growth inhibition: at 46.2 µM (top of the series) unless noted
Outline: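 Cell growth measured by CellTiter-Glo luminescence after a minimum 48 h, 37 C compound exposure with 20 nM CPT in Tdp1-knockout DT40 cells stably expressing hTDP1, seeded 400/well; qHTS titration format.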
% is set by controls: 0 for no effect and ±100 for the full control effect; potency is the fitted concentration of half-maximal effect; tags give direction and shape of the fitted curve.

| Structure (SMILES) | activity change, negative = growth inhibition | Potency |
| --- | --- | --- |
| CC1=CC(C)C(/C=N/n2cnnc2)C(C)C1 (centres undefined) | inactive: -4.13% |  |
| CCO[C@H]1OC(C(=O)NCc2nc3ccccc3[nH]2)=C[C@@H](c2ccccc2)[C@@H]1CCCO |  | inconclusive [inhibitor, single point] |
| COc1ccc(-n2c(Cc3cccn3C)nnc2SCC(=O)Nc2cccc(OC)c2)cc1 | inactive: -10.6% |  |
| CCN(CC)c1ccc(/C=N/NC(=O)c2nnn(-c3nonc3N)c2-c2ccc(C)cc2)cc1 |  | inconclusive [inhibitor, single point] |
| Cc1ccc(NC(=O)CSc2nc3nn(-c4ccccc4)c(=O)c-3c3n2CCCCC3)cc1F |  | inconclusive [inhibitor, single point] |
| CCc1cccc(C)c1NC(=S)N(CCN(C)C)C(C)c1ccco1 (centres undefined) |  | active: 18.4 µM |
| O=[N+]([O-])c1ccc(Oc2cccc(F)c2)c2ccncc12 |  | inconclusive [inhibitor, partial curve, poor fit] |
| O=C(COC(=O)Cn1cnc2ccccc2c1=O)NCC12CC3CC(CC(C3)C1)C2 |  | inconclusive [inhibitor, single point] |
| CCOc1cccc(/C=C/c2ccc3cccc(O)c3n2)c1OC |  | active: 20.6 µM |
| COC(=O)c1[nH]c2cccc(OC)c2c1NC(=O)CCN1CCN(c2ccccc2OC)CC1 |  | active: 10 µM |
| CCOC(=O)/C=C/C(=O)N1CCN(C(=O)/C=C/C(=O)OCC)CC1 |  | inconclusive [inhibitor, single point] |
| COc1ccc(C(=O)N2CCCCC2c2cc(C(=O)Nc3ccc(F)c(Cl)c3)no2)cc1 (centres undefined) |  | inconclusive [inhibitor, partial curve, poor fit] |
| CN(C)CCCN(C(=O)c1ccc(S(=O)(=O)N2CCCCCC2)cc1)c1nc2c(F)cccc2s1 |  | inconclusive [inhibitor, single point] |
| CC(=O)Nc1cc(N=Cc2ccc(O)cc2O)c(Cl)cc1Cl |  | inconclusive [inhibitor, single point] |
| O=C(NC1CC1)c1ccc2c(Cl)c3c(nc2c1)CCCC3 |  | inconclusive [inhibitor, single point] |
| Cc1ccc(-n2ncc3c(N4CCCCCC4)ncnc32)cc1C |  | inconclusive [inhibitor, partial curve] |
| O=C(COc1ccccc1)N1CCN(c2ncnc3c2cnn3-c2ccccc2)CC1 |  | inconclusive [inhibitor, single point] |
| CCN1CCN=C1Nc1ccccc1 | inactive: 8.58% |  |
| Cc1ccc(C(=O)Nc2ccc(N3CCN(C(=O)c4ccco4)CC3)cc2)c(Cl)c1 |  | inconclusive [inhibitor, single point] |
| CC(C)(C)c1ccc(C(=O)Nc2cnccn2)cc1 | inactive: -11.7% |  |
| Cc1cc(NC(=O)c2sccc2C)n(-c2nc3ccccc3[nH]2)n1 |  | inconclusive [inhibitor, single point] |
| N#CC(C#N)=NNc1ccc2cn[nH]c2c1 |  | active: 4.11 µM |

| Structure (SMILES) | activity change, negative = growth inhibition | Potency |
| --- | --- | --- |
| Cc1ccc(CNC(=O)Cc2ccc(Br)cc2)cc1 |  | active: 9.2 µM |
| CC(C)Oc1ccc(CNC(=O)c2ccccc2NC(=O)c2nsc3ccccc23)cc1 |  | inconclusive [inhibitor, single point] |
| O=C(NNC(=O)c1ccccc1O)c1ccc(-c2ccc([N+](=O)[O-])cc2)o1 |  | inconclusive [inhibitor, single point] |
| CCCc1cnc(N2CCN(C(=O)c3ccc(F)cc3)CC2)nc1 |  | inconclusive [inhibitor, partial curve] |
| CC(=O)Nc1ccc(NC(=O)c2cc(-c3ccccc3)nc3ccccc23)cc1 |  | inconclusive [inhibitor, single point] |
| CC(C)Oc1cccc(-c2cc(C(=O)N3CCN(S(C)(=O)=O)CC3)c3ccccc3n2)c1 |  | inconclusive [inhibitor, single point] |
| COc1ccc(NC(=O)COc2ccccc2F)cc1S(=O)(=O)N1CCCCC1 |  | inconclusive [inhibitor, single point] |
| Cc1nccn1CCCNCc1c(C(=O)N2CCCCCCC2)nc2ccc(Cl)cn12 | inactive: -0.131% |  |
| Cc1cccnc1NC(=O)CNC(=O)C1CCCCC1 | inactive: -6.25% |  |
| O=C(Nc1cc(S(=O)(=O)N2CCOCC2)ccc1N1CCCC1)c1ccc2c(c1)S(=O)(=O)c1ccccc1C2=O |  | active: 13 µM |
| C=CCN(C(=O)Nc1ccc2oc(C)nc2c1)c1ccccc1 |  | inconclusive [inhibitor, single point] |
| CC1(C(=O)NCC2CC2)Cc2c(-c3cccc(C(F)(F)F)c3)ccnc2O1 (centres undefined) |  | active: 5.8 µM |
| CNS(=O)(=O)c1cn(CC(=O)N2CCN(c3cccc(Cl)c3)CC2)cc1S(=O)(=O)NC |  | inconclusive [inhibitor, partial curve] |
| CCCC[C@@H]1Cc2[nH][nH]c(=O)c2[C@@H](c2ccc(Cl)cc2)O1 | inactive: -13.9% |  |
| COc1cc(OC)cc(-c2c(C#Cc3ccsc3)c3cc(-c4ccc(OC)nc4)ccc3n2C)c1 | inactive: -22.2% |  |
| Clc1ccccc1C1Nc2cccc3cccc(c23)N1 |  | inconclusive [inhibitor, single point] |
| Cc1ccsc1C(=O)NNC(=O)COc1ccccc1Cl | inactive: -4.58% |  |
| O=S(=O)(c1ccccc1)c1nnn2c1nc(NC1CCN(Cc3ccccc3)CC1)c1ccccc12 |  | active: 5.8 µM |
| O=C(c1cnn(-c2nccc(-c3ccco3)n2)c1C1CC1)N1CCCCC1c1cccnc1 (centres undefined) | inactive: 14.3% [at 9.04 µM] |  |
| Cc1ccc(C(=O)c2ccccc2C(=O)OCC(=O)Nc2ccc(SC(F)F)cc2)cc1 |  | inconclusive [inhibitor, single point] |
| COC(=O)C1=C(C)N(c2ccc(C)cc2)/C(=C/c2ccc(O)cc2)C1=O |  | inconclusive [inhibitor, single point] |
| COc1ccc(N(C)S(=O)(=O)c2cccc(C(=O)NCC(c3cccs3)N(C)C)c2)cc1 (centres undefined) | inconclusive: -34.4% [inhibitor] |  |
